# Results reported in PMC4336329 (PLoS ONE, 2015).
# Screen size: about 310,000 compounds; about 14,000 (4.5%) showed an effect of 50% or more. Effects have a minus sign here. The list shows a part of the results.
# Molecular target: human ether-à-go-go-related gene (hERG) potassium channel (human, UniProt Q12809)
# Test: primary screen, population patch clamp on CHO cells stably expressing hERG
# 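Note: peak tail current of the secondary pulse compared with the same well before compound.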
# Chain of human ether-à-go-go-related gene (hERG) potassium channel (Q12809 whole entry, looked up): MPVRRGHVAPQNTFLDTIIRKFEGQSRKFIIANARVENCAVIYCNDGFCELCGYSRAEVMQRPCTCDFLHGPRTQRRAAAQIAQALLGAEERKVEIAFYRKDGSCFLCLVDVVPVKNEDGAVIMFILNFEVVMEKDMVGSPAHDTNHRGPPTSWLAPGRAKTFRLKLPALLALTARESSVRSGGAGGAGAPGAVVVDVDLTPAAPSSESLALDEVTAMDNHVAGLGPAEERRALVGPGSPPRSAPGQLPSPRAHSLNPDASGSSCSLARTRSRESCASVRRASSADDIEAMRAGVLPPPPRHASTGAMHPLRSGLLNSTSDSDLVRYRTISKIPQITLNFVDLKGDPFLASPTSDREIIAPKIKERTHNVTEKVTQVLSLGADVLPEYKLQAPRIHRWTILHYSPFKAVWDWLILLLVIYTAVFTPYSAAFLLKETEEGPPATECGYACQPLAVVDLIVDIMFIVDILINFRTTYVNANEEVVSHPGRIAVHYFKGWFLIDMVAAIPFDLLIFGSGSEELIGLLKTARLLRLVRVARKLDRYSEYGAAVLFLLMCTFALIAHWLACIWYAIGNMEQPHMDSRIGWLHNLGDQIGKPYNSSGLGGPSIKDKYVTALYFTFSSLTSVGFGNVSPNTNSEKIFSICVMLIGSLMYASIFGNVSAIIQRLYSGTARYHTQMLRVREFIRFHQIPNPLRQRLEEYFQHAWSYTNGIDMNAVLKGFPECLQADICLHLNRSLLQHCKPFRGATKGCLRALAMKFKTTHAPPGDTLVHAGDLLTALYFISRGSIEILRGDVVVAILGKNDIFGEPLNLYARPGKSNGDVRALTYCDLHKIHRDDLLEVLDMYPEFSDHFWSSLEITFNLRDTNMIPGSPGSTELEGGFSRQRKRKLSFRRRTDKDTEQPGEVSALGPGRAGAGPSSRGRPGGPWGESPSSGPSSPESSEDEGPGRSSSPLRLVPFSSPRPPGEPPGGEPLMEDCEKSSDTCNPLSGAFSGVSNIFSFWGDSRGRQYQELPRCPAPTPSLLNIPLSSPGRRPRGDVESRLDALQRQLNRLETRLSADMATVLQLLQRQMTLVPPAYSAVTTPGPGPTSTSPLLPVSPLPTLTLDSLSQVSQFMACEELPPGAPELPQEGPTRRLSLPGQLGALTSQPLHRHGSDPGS
row,SMILES,"hERG current change (%, negative = inhibition) at 10uM"
1,Cc1cc(OC(C)C(=O)NCC2CCC(C(=O)O)CC2)c2c3c(c(=O)oc2c1)CCC3 (stereo not drawn),5.94%
2,COc1ccc(OC)c2[nH]c(=O)c(CCNC(=O)C(C)(C)C)cc12,6.42%
3,CC1(C)Oc2ccc3ccc(=O)oc3c2[C@@H](O)[C@@H]1O,25.7%
4,O=C(O)C1C2C=CC(C2)C1C(=O)NCc1cccs1 (stereo not drawn),9.44%
5,COc1cc(/C=C/C(=O)OCC(=O)Nc2ccc(S(=O)(=O)N3CCCC3)cc2)ccc1O,1.5%
6,COc1ccccc1NC(=O)CN1C(=O)C(C)Oc2ccccc21 (stereo not drawn),0.559%
7,COc1ccccc1CNC(=O)COC(=O)CNS(=O)(=O)c1ccc(NC(C)=O)cc1,-0.768%
8,Cc1cc(NC(=O)COc2cccnc2[N+](=O)[O-])no1,8.27%
9,COc1ccc(CN2C(=O)CC(Cc3cc(C)cc(C)c3)C2=O)cc1OC (stereo not drawn),-9.3%
10,Cc1c(NC(=O)CSc2ncnc3ccccc23)c(=O)n(-c2ccccc2)n1C,-38.8%
11,Cc1ccc(CNC(=O)CCCC(=O)Nc2cc(C)on2)cc1,7.73%
12,CNc1cc(CSC)nc(SCc2ccc(Cl)cc2Cl)n1,18.5%
13,CCOC(=O)[C@@H]1[C@H]2COc3ccccc3[C@@H]2N2C(=O)N(c3ccc(F)cc3)C(=O)[C@@]12C,3.27%
14,O=C(c1ccco1)N1CCN(C(=O)c2cccs2)CC1,4.71%
15,CCn1c(-c2ccc3ncccc3c2)n[nH]c1=S,-2.22%
16,Clc1ccc(Cn2ncc3c(NCCN4CCOCC4)ncnc32)cc1,-11.9%
17,CC(C)Sc1ccc(C(=O)Nc2ccc(F)cc2F)cn1,13.6%
18,CCN(CC)C(=O)CSc1nnc([C@@H](N)Cc2ccccc2)o1.Cl,-0.884%
19,Cc1ccc2c(CC(=O)NCc3ccc4c(c3)OCO4)coc2c1,0.945%
20,Cc1ccccc1-n1c(=O)cc(N2CC(C)OC(C)C2)[nH]c1=O (stereo not drawn),1.65%
21,CC(=O)N1CCN=C1SCc1ccc(F)cc1,6.28%
22,CCOC(=O)C1CCCN(C(=O)CCn2nc(-c3ccccc3)ccc2=O)C1 (stereo not drawn),-41.5%

row,SMILES,"hERG current change (%, negative = inhibition) at 10uM"
1,CCC1SC2=NC(C)=C(C(=O)OCCOC)C(/C=C/c3ccccc3OC)N2C1=O (stereo not drawn),-0.0141%
2,COCCCn1c(=N)c(C(=O)NCC2CCCO2)cc2c(=O)n3cccc(C)c3nc21 (stereo not drawn),-73.1%
3,Cc1cc(C)nc(SCC(=O)Nc2ncc3c(n2)CC(C)(C)CC3=O)n1,-13.1%
4,C=CCNc1oc(COc2ccc(C)cc2)nc1C#N,-17%
5,CCc1cc(C(=O)N2CCN(C(=O)c3ccco3)CC2)sc1C,10.6%
6,C1CC2CN(c3nc4nonc4nc3N3CCSCC3)CCN2C1 (stereo not drawn),2.38%
7,O=[N+]([O-])c1ccc(S(=O)(=O)NCC(c2cccnc2)N2CCc3ccccc32)cc1 (stereo not drawn),-31.5%
8,O=C(O)c1ccc(Cl)c(S(=O)(=O)Nc2ccc3cn[nH]c3c2)c1,-6.08%
9,CCOC(=O)C1=C(CC)Nc2ccccc2N=C1N,12.9%
10,C=CCn1c(SCc2nc3ccccc3[nH]2)nnc1-c1ccc(OC)cc1,-7.51%
11,C=CCNC(=O)c1ccc(-c2nc(-c3ccc(Cl)cc3Cl)cs2)cc1,-0.511%
12,CC(C)CCn1c(=O)c2sccc2n2c(CCCC(=O)N3CCC(N4CCCCC4)CC3)nnc12,-4.07%
13,Cc1ccc(N2CC(C(=O)N3CCC(C(=O)Nc4nncs4)CC3)CC2=O)cc1 (stereo not drawn),14%
14,C/C(=N\NC(=O)c1ccc(CN(C)S(=O)(=O)c2ccc(C)cc2)cc1)c1ccc(OC(F)F)cc1,-26.2%
15,Cc1cc(NC(=O)CSc2ncnc3sc(C)c(C)c23)no1,7.01%
16,O=C(Oc1ccccc1N1CCOCC1)c1sccc1Br,5.53%
17,COc1ccc(NS(=O)(=O)c2cc(C(=O)N3CCN(C/C=C/c4ccccc4)CC3)ccc2C)cc1,-44.9%
18,O=C(O)c1cccc(NC(=O)c2cn(-c3ccccc3)nc2-c2cccc(Br)c2)c1,19.6%
19,CCN(CC(=O)N1CCN(Cc2ccccc2)CC1)S(=O)(=O)c1ccc(C)cc1,-17.3%
20,COc1cc(C(=O)NCC(c2ccccc2)N(C)C)ccc1OCc1c(C)noc1C (stereo not drawn),-10.4%
21,O=C(CCn1c(=O)oc2ccccc21)N1CCc2ccccc21,15.6%
22,Cc1nnsc1C(=O)NC(=O)Nc1ccc(F)c(Cl)c1,11.2%

row,SMILES,"hERG current change (%, negative = inhibition) at 10uM"
1,O=C(OCc1nc2ccsc2c(=O)[nH]1)c1ccc(Cl)s1,-5.59%
2,CCc1cc(=O)oc2c(CNC(Cc3ccccc3)C(=O)O)c(O)ccc12 (stereo not drawn),9.3%
3,O=C(CN1CCN(c2ccccc2)CC1)Nc1c(C(=O)C2CC2)oc2ccccc12,4.49%
4,CCc1cccc(C)c1NC(=O)COC(=O)c1c2c(nc3ccccc13)/C(=C\c1cccs1)CCC2,10.4%
5,Cc1ccc(C(O)CN2C3=NCCN3c3ccccc32)cc1.Cl (stereo not drawn),-61.1%
6,COc1ccc(C(=O)C2CCCN(Cc3cccn3-c3ccccn3)C2)c(C)c1 (stereo not drawn),-78.9%
7,CN1/C(=C\C=O)C(C)(C)c2ccccc21,12.9%
8,CC(c1ccco1)N(C(=O)CSc1ccc(Br)cc1)c1ccccn1 (stereo not drawn),-22.2%
9,CN(C)CC(C)(C)CNS(=O)(=O)c1ccc(OC(F)(F)F)cc1.Cl,3.54%
10,Cc1ccc2nc(-c3cccc(-c4cccc(Cl)c4)c3)c(NCc3ccccc3)n2c1.O=C(O)C(F)(F)F,16.3%
11,CCn1c(=O)c2cc(C(=O)Nc3cccc(C(C)=O)c3)sc2c2ccccc21,-3.05%
12,O=C(CSc1nc2[nH]ncc2c(=O)[nH]1)Nc1ccc(F)cc1,13.6%
13,CCOC(=O)CNS(=O)(=O)c1c(C)noc1C,1.95%
14,Cc1ccc(NC(=S)NC2CCCCC2)cc1S(=O)(=O)N(C)C,-36.8%
15,CCOc1ccccc1N(C)C(=O)c1nn(-c2ccc(OC)cc2OC)c(=O)c2ccccc12,-25.6%
16,CCCCN(C(=O)CSc1cc(C)c2ccc(OC)cc2n1)c1c(N)n(Cc2ccccc2)c(=O)[nH]c1=O,-11.1%
17,O=C(COC(=O)c1ccco1)NCC1CCCO1 (stereo not drawn),-16.4%
18,C/C(=N\NC(=O)Cc1ccccc1)c1ccc(Br)s1,20.3%
19,CN(C)CCN(Cc1ccccc1)C(=O)[C@H](Cc1ccccc1)N1C(=O)c2ccccc2C1=O,-30.1%
20,O=S(=O)(Nc1ccc(-c2ccc3nncn3n2)cc1)c1ccccc1F,7.03%
21,N#CC1(NC(=O)COC(=O)C23CC4CC(CC(O)(C4)C2)C3)CCCCC1,4.38%
22,CC(=O)N1CC(=O)N(CC(=O)Nc2ccc(Br)cc2)C1=S,12.3%

row,SMILES,"hERG current change (%, negative = inhibition) at 10uM"
1,CNC(=S)Nc1cccc(C(=O)O)c1,38.1%
2,CCN(CC)S(=O)(=O)c1ccc(NC(=O)C2COc3ccccc3O2)cc1 (stereo not drawn),1.61%
3,Brc1ccccc1OCCN1CCCC1,-1.74%
4,Cc1cccc2c1-c1sc(C(=O)Nc3nccs3)cc1CO2,-2.96%
5,Cc1cc(C)nc(SCCC(=O)Nc2ccccc2C)n1,21.8%
6,Oc1ccc(-n2cccc2/C=N/n2cnnc2)cc1,13.8%
7,Cc1ccc(S(=O)(=O)N(C)c2ccc(OCC(=O)Nc3nc(-c4ccccc4)cs3)cc2)cc1,14.3%
8,CS(=O)(=O)c1ccc(Cl)c(NC(=O)CSc2nnc(-c3cccs3)n2N)c1,11.4%
9,COc1cc(C(=O)NC2CC(C)(C)Cc3c2cnn3-c2ccccc2)cc(OC)c1OC (stereo not drawn),8.92%
10,Cc1cc(NC(=O)CSc2nc3cc(Cl)ccc3c(=O)n2Cc2ccco2)no1,29.8%
11,CCc1ccccc1Nc1nc2ccccc2n1C,-18.1%
12,CC(=O)Nc1ccc(NC(=O)COc2ccc(S(=O)(=O)NC(C)c3ccccc3)cc2)cc1 (stereo not drawn),44.6%
13,Cc1ccc(NC(=O)c2cccc(N3C(=O)CCC3=O)c2)nc1,3.86%
14,O=C(NC(=S)Nc1ccc(N2CCCCC2)cc1)c1cccs1,2.04%
15,Cc1cc(C(=O)OCC(=O)Nc2cc(C)on2)c2ccccc2n1,-3.21%
16,Cc1c(NC(=O)C(C)OC(=O)c2ccc(Cl)nc2)c(=O)n(-c2ccccc2)n1C (stereo not drawn),-2.18%
17,O=S(=O)(c1ccc2ccccc2c1)N1CCN(C(=S)Nc2ccc(F)cc2)CC1,-3.88%
18,O=C(Nc1sc2c(c1C(=O)O)CCCC2)C(=O)N1CCOCC1,35%
19,COc1ccc(C)c(Cn2c(-c3nonc3N)nc3ccccc32)c1,0.531%
20,CCN(CC)C(=O)Oc1ccc(Br)c2ccccc12,-13.7%
21,O=C(C[n+]1ccc(C(=O)NCCCO)cc1)c1cccc(Br)c1.[Br-],11.4%
